In all, about 420,000 compounds went through this assay and about 50,000 (12%) were called active. This list was built around the results that the source calls inconclusive (neither active nor inactive); the mix of calls is not that of the screen. Calls follow the shape of the dose curve; as a rule, active = well fitted inhibition curve with a large enough effect; inconclusive = small, poorly fitted or top-dose-only effect; inactive = flat fitted curve, though single readings scatter. Potencies of inconclusive entries are left out as doubtful fits.
Experiment: qHTS for Inhibitors of human tyrosyl-DNA phosphodiesterase 1 (TDP1): qHTS in cells in presence of CPT; also: nearly all actives have a fitted effect of over 55% in size
Details: chicken DT40 Tdp1-/-;hTDP1 cells + 20 nM CPT, ATP luminescence, 48 h; series mostly up to 46.2 µM
Method in brief: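 Chicken DT40 Tdp1-/- cells stably complemented with human TDP1 were seeded at 400 cells/well in medium containing 20 nM camptothecin, exposed to pin-transferred compounds, and grown at 37 °C for at least 48 hr. Viability was read as ATP luminescence.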
Potency is read from the fitted curve at half-maximal effect; tags tell the direction and shape of the fitted curve.

Compound | Potency
CCCNC(=O)c1onc(CSc2ccc(F)cc2)c1C(=O)NCC1CC1 | inconclusive [inhibitor, single point]
NC(=O)CCC(NS(=O)(=O)c1ccc(Cl)cc1)C(=O)NCc1ccc(Cl)cc1 (stereo not given) | inconclusive [inhibitor, single point]
COc1ccc(-c2ccc3c(c2)S(=O)(=O)c2cccc(C(=O)NCc4cccc(OC(F)(F)F)c4)c2C3=O)cc1OC | inconclusive [inhibitor, single point]
COc1ccccc1NC(=O)COc1ccc(Br)cc1CNCCCN1CCOCC1 | inconclusive [inhibitor, single point]
CCOC(=O)c1ccc(N2C(=O)c3[nH]nc(-c4ccc(C)cc4)c3C2c2cccs2)cc1 (stereo not given) | active: 16.4 µM
Cc1ccc(CNC(=O)C2CC3Cn4c(nc5cc(Cl)c(Cl)cc54)C3N2C)o1 (stereo not given) | inconclusive [inhibitor, single point]
CN(Cc1ccco1)c1ncncc1-c1ccccc1Cl | inconclusive [inhibitor, partial curve, poor fit]
CCCCNC(=O)C[C@@H]1C[C@@]2(C(=O)OC)CC(C)(C)CC=C2N(Cc2ccc3c(c2)OCO3)C1=O | active: 16.4 µM
O=C(NCCc1ccccc1)c1c[nH]c2ccccc2c1=O | inactive
COc1ccc(OC)c2c1sc(=NC(=O)C1CCCCC1)n2C | inactive
O=C(NCC1CCCO1)c1nn2c(c1Cl)NC(c1ccc(F)cc1)CC2C(F)(F)F (stereo not given) | active: 16.4 µM
COc1cc(F)ccc1-c1csc(C(C)(NC(C)=O)c2ccccc2)n1 (stereo not given) | active: 11.6 µM
COCCCNC(=O)/C(C#N)=C/c1c(N2CCN(c3cccc(Cl)c3)CC2)nc2c(C)cccn2c1=O | inconclusive [inhibitor, single point]
O=C(N/N=C/C=C/c1ccccc1[N+](=O)[O-])c1cc(-c2cccnc2)nc2ccccc12 | inconclusive [inhibitor, single point]
CCCn1c(CCC(=O)Nc2cc(C(=O)OC)cc(C(=O)OC)c2)nc2cccnc21 | active: 29.1 µM
Cc1cc(C(=O)CN2C(=O)C(=O)N(CCC3=CCCCC3)C2=O)c(C)n1C | inconclusive [inhibitor, single point]
CCN1CCN(CCCOc2ccc(-c3ccccc3)cc2)CC1 | inconclusive [inhibitor, single point]
NNc1nnnc2c1sc1nc(N3CCOCC3)c3c(c12)CCCC3 | inconclusive [inhibitor, single point]
CCOC(=O)c1ccccc1NC(=O)c1cc(S(=O)(=O)N2CCOCC2)ccc1F | inconclusive [inhibitor, single point]
O=C(c1ccc(S(=O)(=O)N2CCCCCC2)cc1)N1CCCC(C(F)(F)F)C1 (stereo not given) | inconclusive [inhibitor, single point]
COc1ccc(C)cc1S(=O)(=O)N1CCN(C(=O)c2ncoc2-c2cccc(C)c2)CC1 | inconclusive [inhibitor, single point]
COc1c(C)cc(C(=O)C2CCCN(C(=O)c3cc(C)n(C)n3)C2)cc1C (stereo not given) | inconclusive [inhibitor, single point]
CCCn1c(CCC(=O)Nc2cc(OC)cc(OC)c2)nc2cccnc21 | inconclusive [inhibitor, single point]
CCCCOc1ccc(Cn2c(=O)sc3ccccc32)cc1OC | inconclusive [inhibitor, single point]
Cc1ccc(C2NC(=O)c3sc(=S)n(-c4ccccc4)c3N2)cc1 (stereo not given) | active: 23.1 µM

Compound | Potency
CCOc1ccccc1-c1nc(-c2ccc(NC(=O)Cc3ccc(OC)cc3)cc2)no1 | inconclusive [inhibitor, partial curve, poor fit]
O=C(O)C1=NN(c2c(F)c(F)cc(F)c2F)C(=O)CC1 | inactive
COC(=O)c1sc(-c2ccc(Cl)cc2)cc1N | inactive
NC(=O)Cc1cccc(C(=O)c2ccccc2)c1N | inactive
CCOC(=O)[C@]12CCCC=C1N(CCC1=CCCCC1)C(=O)[C@H](CC(=O)NCC13CC4CC(CC(C4)C1)C3)C2 | inconclusive [inhibitor, single point]
O=C1C=Cc2cccc3ccc(O)c1c23 | active: 23.1 µM
Oc1ccccc1-c1n[nH]c(-c2ccccc2O)n1 | active: 3.66 µM
CC(C)CCN1CCC(n2nccc2NC(=O)c2ccc3c(c2)OCO3)CC1 | inactive
CC1CCCC(NC(=O)CSc2nnc(-c3cccnc3)o2)C1C (stereo not given) | inactive
Cc1sc2ncnc(N3CCC(C(=O)Nc4nc(-c5ccc(F)cc5)cs4)CC3)c2c1C | inconclusive [inhibitor, single point]
CCn1c(=O)c(=O)[nH]c2cc(C(=O)N3CCN(Cc4ccc5c(c4)OCO5)CC3)ccc21 | inactive
COc1ccc(/C=C/C(=O)ONC2=NCCCCC2)cc1OC | active: 23.1 µM
CSCC(=O)N1CCCC(CNC(=O)c2ccc(-c3ccccc3)cc2)C1 (stereo not given) | active: 23.1 µM
Cc1nn(CC(=O)Nc2ccccn2)c(C)c1Br | active: 8.2 µM
Cc1ccc(NC(=O)CSc2nnnn2C2CCCC2)cc1S(=O)(=O)N1CCOCC1 | inactive
CCOCC(=O)NC1CCc2cc(OC)c(OC)c(OC)c2-c2ccc(SC)c(=O)cc21 (stereo not given) | active: 0.0146 µM
Cc1ccc(NC2=CC(=O)CC(c3ccccc3)C2)cc1 (stereo not given) | active: 2.91 µM
O=S1(=O)CCOC[C@H](c2ccccc2)N1Cc1ccc(Cl)cc1Cl | inconclusive [inhibitor, single point]
COc1ccc(C2=NOC(C(=O)Nc3ccc(C)cc3)C2)cc1OC (stereo not given) | inactive
Cc1ccc(NC(=O)C2CCCN(S(=O)(=O)c3cccc4nsnc34)C2)cc1C (stereo not given) | inconclusive [inhibitor, single point]
COc1ncccc1C(=O)N1CCCC(C(=O)Nc2cccc(-c3ccc(F)cc3)c2)C1 (stereo not given) | active: 20.6 µM
O=C(CN1CCN(c2ccccn2)CC1)Nc1ccccc1Br | inconclusive [inhibitor, single point]
Cc1ccc(C(C)C)c(OCc2nn(CC(=O)c3ccc(OC(F)F)cc3)c3[n+]2CCCCC3)c1 | active: 0.58 µM
CCOC(=O)N/N=C\c1sccc1C | inactive
O=C(NC1CCCCC1)N1CCN(C2CCCCC2)CC1 | inconclusive [inhibitor, partial curve, poor fit]

Compound | Potency
CCCN1CCN(c2nnc(-n3cccc3C(=O)Nc3cc(Cl)ccc3C)s2)CC1 | inconclusive [inhibitor, single point]
CC(C)(C)c1ccc(C(=O)NCCOc2ccccc2F)cc1 | inactive
Cc1cc(-c2nnc(SCC(=O)c3ccc(F)cc3)o2)no1 | inactive
COc1cc(/C=N/NC(=O)CC23CC4CC(CC(C4)C2)C3)cc(Br)c1OCC(=O)N(C)C | active: 20.6 µM
OCCCNc1nc(-c2ccc(Cl)cc2)nnc1-c1ccc(Br)cc1 | active: 23.1 µM
Cc1ccc(C)c(C(=O)COC(=O)c2cc([N+](=O)[O-])ccc2NCCO)c1 | inconclusive [inhibitor, single point]
Cc1ccc(NC(=O)Cc2sc(C)nc2-c2ccc(C)cc2)cc1 | inconclusive [inhibitor, partial curve, poor fit]
CCOc1ccccc1/C=C/c1cc(C(=O)O)c2ccccc2n1 | inactive
CCN(CC)CCN(C(=O)C1=COCCO1)c1nc2cc(C)cc(C)c2s1 | inconclusive [inhibitor, single point]
CSc1ccc(CN2CCC(C)(Oc3ccc(CC#N)cc3)C2)cc1 (stereo not given) | inconclusive [inhibitor, single point]
COc1cccc(/C=N/c2nc3ccccc3n2C)c1O | inactive
NS(=O)(=O)c1ccc(N/C=C\C(=O)c2ccncc2)cc1 | inactive
OCCSc1nc(-c2ccccc2)nc2ccc(F)cc12 | inconclusive [inhibitor, single point]
COC(=O)c1c(C)[nH]c(C(=O)COc2ccc3ccc(=O)oc3c2)c1C | inconclusive [inhibitor, partial curve]
S=C(NC1CCCCC1)NC1CC2C=CC1C2 (stereo not given) | inconclusive [inhibitor, single point]
Cc1cccc(C)c1NC(=O)CSc1nc2c([nH]1)c(=O)n(C)c(=O)n2C | inactive
O=C(CNCc1ccc(F)cc1)Nc1ccccc1-c1ccccc1 | inconclusive [inhibitor, single point]
Cc1ccc(-c2nc(CS(=O)CC(=O)NCc3ccccc3Cl)c(C)o2)cc1 (stereo not given) | inactive
COc1ccccc1/C=N/NC(=O)c1ccc(-c2ccccc2)cc1 | active: 20.6 µM
c1ccc2c(CCNc3ncnc4nc[nH]c34)c[nH]c2c1 | active: 6.51 µM
Cc1ccc2sc(NNC(=O)c3cc(=O)c4ccccc4o3)nc2c1C | active: 29.1 µM
CCOC(=O)Cc1ccc(NC(=O)N2CCSc3ccccc32)cc1 | inconclusive [inhibitor, single point]
COc1ccccc1/C=C/C(=O)OCC(=O)Nc1ccc2c(c1)OCCO2 | inactive
CC(C)(O)C#Cc1ccc(C(=O)Nc2ccc3c(c2)OCO3)s1 | inconclusive [inhibitor, single point]
COc1ccccc1NC(=O)CSC1=Nc2ccccc2C2=NC(CCC(=O)NCc3ccco3)C(=O)N12 (stereo not given) | active: 14.6 µM
